Data as given in PubChem BioAssay AID624296 (National Center for Advancing Translational Sciences (NCATS), 2012).
Several values for one entry are separate records, joined by “and”; a condition that tells them apart may be missing. Identical values can stand only once. Among all 350,000 compounds or so, about 9,900 (2.8%) were called active. Inconclusive means that the source gave no clear call. Such entries were picked first, then a sample of the others. Calls follow the shape of the dose curve; as a rule, active = well fitted activation curve with a large enough effect; inconclusive = small, poorly fitted or top-dose-only effect; inactive = no such curve, though single readings can be large or run the other way. Potencies of inconclusive entries are doubtful fits and often do not repeat.

Experiment: A quantitative high throughput screen for small molecules that induce DNA re-replication in MCF 10a normal breast cells. Also: nearly all actives have a fitted effect of over 50% in size.
Settings: MCF 10A DNA re-replication, Hoechst nuclear intensity, 48 h; series mostly up to 46.1 µM
Potency is read from the fitted curve at half-maximal effect; tags tell the direction and shape of the fitted curve.

Question: Which Potency does the source give for `NS(=O)(=O)c1ccc(CCNC(=O)c2cc(-c3ccccn3)nc3ccc(Br)cc23)cc1` here?
Answer: inconclusive: 28.2 µM [activator, single point]

Question: For `Cc1cc(NC(=O)CCC(=O)N(Cc2ccccc2)C(C(=O)NC2CCCC2)c2ccco2)no1` (configuration not stated), which Potency is on record?
Answer: inconclusive: 0.13 µM [activator, full curve, poor fit]

Question: For `O=C(NC(=S)NCc1ccc(-c2nc3ccccc3s2)cc1)c1ccco1`, which Potency is on record?
Answer: inconclusive: 20.6 µM [activator, single point]

Question: For `CCc1nnc(NC(=O)c2ccc(OC)c(S(=O)(=O)N3CCCC3)c2)s1`, which Potency is on record?
Answer: inactive

Question: With `COc1ccc(CCNc2ccc(C(CC(N)=O)NC(=O)c3cc(OC)ccc3OC)cc2[N+](=O)[O-])cc1` (configuration not stated) as the compound, how does the Potency read?
Answer: inactive

Question: Which Potency does the source give for `CC(C)(C)n1ncc2c(=O)n(Cc3c(F)cccc3Cl)cnc21` here?
Answer: inconclusive: 7.31 µM [activator, partial curve]

Question: With `CN(C)c1ccc(Nc2ccc([N+](=O)[O-])cn2)cc1` as the compound, how does the Potency read?
Answer: inactive

Question: Which Potency does the source give for `O=C(Nc1ccc(S(=O)(=O)N2CCCCC2)cc1)C1CC(=O)N(c2ccc(Cl)cc2)C1` (configuration not stated) here?
Answer: inconclusive: 10.3 µM [activator, partial curve, poor fit]

Question: With `S=C(Nc1ccc(Oc2ccccc2)cc1)NC1CCCCCC1` as the compound, how does the Potency read?
Answer: active: 14.6 µM

Question: With `Cc1ncccc1C(=O)N1CCCC(CNC(=O)C2(c3ccc(Cl)cc3)CC2)C1` (configuration not stated) as the compound, how does the Potency read?
Answer: inactive

Question: Which Potency does the source give for `COc1ccccc1OCCSc1nc2ccccc2c(=O)[nH]1` here?
Answer: active: 20.6 µM

Question: Which Potency does the source give for `CC(=O)Oc1ccc2c(=O)c(-c3nc4ccccc4s3)coc2c1` here?
Answer: inactive

Question: With `COc1ccccc1OCC(=O)Nc1cc(S(=O)(=O)N2CCCCC2)ccc1N1CCCCC1` as the compound, how does the Potency read?
Answer: inconclusive: 20.6 µM [activator, single point]

Question: With `O=C(Cn1cc(SCc2ccc(Cl)cc2)c2ccccc21)N1CCOCC1` as the compound, how does the Potency read?
Answer: inconclusive: 14.6 µM [activator, partial curve, poor fit]

Question: For `O=C(Nc1ccc(Cl)cc1)ON=C1CCCC1`, which Potency is on record?
Answer: inconclusive: 29.1 µM [activator, partial curve, poor fit]

Question: Which Potency does the source give for `Cc1nn(Cc2cccc(C(=O)Nn3cc([N+](=O)[O-])cn3)c2)c(C)c1[N+](=O)[O-]` here?
Answer: inconclusive: 9.2 µM [activator, partial curve, poor fit]

Question: Which Potency does the source give for `O=C(Nc1ccc2ccccc2n1)c1ccccc1Br` here?
Answer: inactive

Question: Which Potency does the source give for `Cc1nn(Cc2ccccc2Cl)c(C)c1NC(=O)c1ccn(C)n1` here?
Answer: inactive

Question: For `CC(C)c1ccccc1NC(=O)CCc1nc2ccccc2s1`, which Potency is on record?
Answer: inconclusive: 5.8 µM [activator, single point]

Question: For `CN(C)C1=NCCN1CC1CCCC1`, which Potency is on record?
Answer: inactive

Question: For `Cc1ccc(CCNC(=O)CNC(=S)N(Cc2ccccc2)Cc2cccnc2)cc1`, which Potency is on record?
Answer: inactive

Question: Which Potency does the source give for `CNC(=S)N/N=C/c1c(C)nn(-c2cccc(Cl)c2)c1Cl` here?
Answer: inactive

Question: Which Potency does the source give for `COc1ccccc1-c1cc(C(F)(F)F)nc(S(=O)(=O)CCCC(=O)NCc2ccc(F)cc2)n1` here?
Answer: active: 4.11 µM

Question: With `CCOC(=O)c1ccc(N2CCN(c3ccccc3F)CC2)c(NC(=O)Nc2cccc(OC)c2)c1` as the compound, how does the Potency read?
Answer: inactive

Question: With `Oc1[nH]c2ccccc2c1N=Nc1ccccc1F` as the compound, how does the Potency read?
Answer: inconclusive: 5.17 µM [activator, partial curve, poor fit]

Question: With `COc1ccc(CCOC(=O)c2ccc(N)c([N+](=O)[O-])c2)cc1` as the compound, how does the Potency read?
Answer: inactive

Question: With `Cc1cc(C)n2nc(SCc3cccc(S(=O)(=O)N(C)C)c3)nc2n1` as the compound, how does the Potency read?
Answer: inactive

Question: With `CC(=O)c1ccc(OCCCC(=O)Nc2cc(S(=O)(=O)N(C)C)ccc2C)cc1` as the compound, how does the Potency read?
Answer: inactive

Question: For `Cc1ccc(Sc2cc(C(=O)c3ccccc3C(=O)O)ccc2[N+](=O)[O-])cc1`, which Potency is on record?
Answer: inconclusive: 14.6 µM [activator, partial curve, poor fit]

Question: For `CSc1nc2nc3c(cn2n1)C(=O)CC(c1ccccc1)C3` (configuration not stated), which Potency is on record?
Answer: inactive

Question: With `CS(=O)(=O)N1CCCC(C(=O)NCc2ccc(F)cc2)C1` (configuration not stated) as the compound, how does the Potency read?
Answer: inconclusive: 29.1 µM [activator, single point]

Question: Which Potency does the source give for `COc1ccccc1C(=O)Nc1nc2ccc(S(C)(=O)=O)cc2s1` here?
Answer: inconclusive: 20.6 µM [activator, partial curve, poor fit]

Question: Which Potency does the source give for `O=C(CN1CCCCCC1)Nc1ccc(Br)cc1Br` here?
Answer: inconclusive: 18.4 µM [activator, single point]

Question: For `O=C(Nc1ccc(NC(=O)c2cccs2)cc1)c1ccc(Br)o1`, which Potency is on record?
Answer: inconclusive: 6.51 µM [activator, single point]

Question: Which Potency does the source give for `COc1cc2c(cc1OC)C(SC)=NC1(CCCC1)C2` here?
Answer: inconclusive: 18.4 µM [activator, single point]

Question: Which Potency does the source give for `Oc1cccc(O)c1O` here?
Answer: inactive

Question: For `Cc1ccc(NC(=O)/C(C#N)=C(\N)C(Cl)(Cl)Cl)nc1`, which Potency is on record?
Answer: active: 18.4 µM

Question: For `O=C(CC(=O)Nc1cccc(F)c1)Nc1cccc(F)c1`, which Potency is on record?
Answer: inactive

Question: For `O=C(/C=C/c1cccc([N+](=O)[O-])c1)c1ccc([N+](=O)[O-])o1`, which Potency is on record?
Answer: active: 1.64 µM

Question: For `O=C(CSc1ccc(-c2ccc(F)cc2)nn1)N1CCCc2ccccc21`, which Potency is on record?
Answer: inconclusive: 29.1 µM [activator, single point]

Question: For `CCC(OC(=O)c1ccco1)C(=O)NCc1ccc2c(c1)OCO2` (configuration not stated), which Potency is on record?
Answer: inactive

Question: With `S=C(NCCCc1ccccc1)Nc1ccc(Cl)cc1` as the compound, how does the Potency read?
Answer: inconclusive: 29.1 µM [activator, single point]

Question: Which Potency does the source give for `COC1=CC(=O)C[C@@H](C)[C@]12Oc1c(Cl)c(OC)cc(OC)c1C2=O` here?
Answer: inconclusive: 21.1 µM [activator, partial curve, poor fit] and inconclusive: 6.51 µM [activator, single point]

Question: Which Potency does the source give for `Cc1cc2nnc(SCC(=O)NCc3ccco3)n2c2ccccc12` here?
Answer: inconclusive: 20.6 µM [activator, single point]

Question: With `CN(C)CCNc1ncnc2sc(-c3ccccc3)cc12` as the compound, how does the Potency read?
Answer: inconclusive: 23.1 µM [activator, single point]

Question: With `O=C(NCc1ccccc1Cl)C1CCCN(S(=O)(=O)c2cccc3nonc23)C1` (configuration not stated) as the compound, how does the Potency read?
Answer: inconclusive: 23.1 µM [activator, single point]

Question: With `CC1CCCCN1C(=S)Nc1ccc2nc3n(c(=O)c2c1)CCCCC3` (configuration not stated) as the compound, how does the Potency read?
Answer: inconclusive: 16.4 µM [activator, partial curve, poor fit]

Question: For `COc1cc(C)c(S(=O)(=O)N2CCOCC2)cc1C(C)C`, which Potency is on record?
Answer: inactive

Question: For `COc1ccc(SC[C@H](C)CN2CC[C@H](C(C)(C)C)CCC2=O)cc1`, which Potency is on record?
Answer: inconclusive: 11.6 µM [activator, partial curve, poor fit]

Question: For `Cc1cccc(C)c1NC(=O)/C(C#N)=C/c1ccsc1`, which Potency is on record?
Answer: inconclusive: 2.91 µM [activator, single point]

Question: Which Potency does the source give for `Cc1cc(NC(=O)CCC(=O)N(Cc2ccco2)C(C(=O)NC2CCCC2)c2ccc(F)cc2)no1` (configuration not stated) here?
Answer: inconclusive: 18.4 µM [activator, single point]

Question: Which Potency does the source give for `CCCCCCCC(=O)NNC(=O)c1c(O)c2ccccc2n(CC)c1=O` here?
Answer: inconclusive: 25.9 µM [activator, single point]

Question: Which Potency does the source give for `O=C(c1cccc(Cl)c1)c1nn(-c2ccccc2)c(=O)cc1C(F)(F)F` here?
Answer: inactive

Question: For `O=C(Cn1cnc2c(nnn2Cc2ccc(Cl)cc2)c1=O)NCc1ccco1`, which Potency is on record?
Answer: inconclusive: 8.2 µM [activator, partial curve, poor fit]

Question: Which Potency does the source give for `CC(Sc1nnc(COc2ccc(Cl)cc2)n1Cc1ccco1)C(=O)N1CCNC1=O` (configuration not stated) here?
Answer: inactive

Question: For `O=C(N1CCN(Cc2ccc3c(c2)OCO3)CC1)C(Cl)(Cl)Cl`, which Potency is on record?
Answer: inconclusive: 29.1 µM [activator, single point]

Question: Which Potency does the source give for `CCCn1nc(NC(=O)C(C)C)c2cc3cc(OC)ccc3nc21` here?
Answer: inconclusive: 29.1 µM [activator, single point]

Question: With `COc1cc(/C=N/NC(=S)NC(C)C)ccc1OCC(=O)Nc1c(C)cc(C)cc1C` as the compound, how does the Potency read?
Answer: inconclusive: 0.0046 µM [activator, full curve]

Question: With `CCOC(=O)c1cccc(NC(=O)CSc2nnc(COc3ccccc3)n2CC)c1` as the compound, how does the Potency read?
Answer: inconclusive: 25.9 µM [activator, partial curve, poor fit]

Question: With `Cc1sc(NC(=O)COc2ccccc2)c(C#N)c1-c1ccccc1` as the compound, how does the Potency read?
Answer: inactive

Question: For `CC(C)(C)NC(=O)C(c1cccs1)N(C(=O)c1csnn1)c1cccc(F)c1` (configuration not stated), which Potency is on record?
Answer: inactive

Question: With `COc1ccccc1N=c1oc2cc(O)ccc2cc1C(N)=O` as the compound, how does the Potency read?
Answer: active: 18.4 µM

Question: For `COc1ccccc1N(CC(O)Cn1ccnc1C)S(=O)(=O)c1ccccc1` (configuration not stated), which Potency is on record?
Answer: inactive

Question: Which Potency does the source give for `N#Cc1c(NC(=O)CSc2nnnn2C2CCCCC2)sc2c1CCCC2` here?
Answer: inactive

Question: For `CCCCSc1nc2c(cc1C#N)CCC2`, which Potency is on record?
Answer: inconclusive: 29.1 µM [activator, partial curve, poor fit]

Question: With `Cc1ccn2c(=O)nc(SCC(=O)Nc3cccc4ccccc34)nc2c1` as the compound, how does the Potency read?
Answer: inconclusive: 0.82 µM [activator, full curve, poor fit]

Question: Which Potency does the source give for `Cc1ccc(CNC(=O)C(C)C2Sc3ccccc3NC2=O)cc1` (configuration not stated) here?
Answer: inactive

Question: Which Potency does the source give for `Cc1ccc(CSC2=Nc3ccccc3C3=NC(=O)CN23)cc1` here?
Answer: inactive

Question: Which Potency does the source give for `CCOC(=O)C1CCCCN1Cc1cccc(OC)c1OC` (configuration not stated) here?
Answer: inconclusive: 18.4 µM [activator, partial curve, poor fit]

Question: For `Cc1csc(=Nc2ccccc2)n1CCO`, which Potency is on record?
Answer: inconclusive: 0.116 µM [activator, partial curve, poor fit]

Question: For `COC(=O)C1=C(C(=O)OC)[C@@H]2Nc3ccccc3[C@@]23C[C@@H](C(=O)OC)N(C(=O)c2cccs2)C3=N1`, which Potency is on record?
Answer: inconclusive: 14.6 µM [activator, partial curve, poor fit]

Question: With `CCN(c1ccccc1)S(=O)(=O)c1ccc(OC)c(NC(=O)c2cccs2)c1` as the compound, how does the Potency read?
Answer: inconclusive: 29.1 µM [activator, single point]
